Out of some 350,000 compounds screened, about 9,900 (2.8%) were called active. This list was built around the results that the source calls inconclusive (neither active nor inactive); the mix of calls is not that of the screen. Calls come from the whole dose curve; as a rule, active = well fitted activation curve with a large enough effect; inconclusive = small, poorly fitted or top-dose-only effect; inactive = no such curve, though single readings can be large or run the other way. No potency is given beside an inconclusive call; the fits are too rough.
Assay: A quantitative high throughput screen for small molecules that induce DNA re-replication in MCF 10a normal breast cells. Note: nearly all actives have a fitted effect of over 50% in size.
Details: MCF 10A DNA re-replication, Hoechst nuclear intensity, 48 h; series mostly up to 46.1 µM
Potency is the fitted concentration of half-maximal effect; tags give direction and shape of the fitted curve.

Which Potency does the source give for `Cc1oc(-c2ccc(Cl)cc2)nc1CN1CCCC(C(=O)NCCCN2CCOCC2)C1` (configuration not stated) here?
Its Potency is inconclusive [activator, single point].

For `CC(C)Cn1c(C(C)C)nc([N+](=O)[O-])c1Sc1ccc(Cl)cn1`, which Potency is on record?
Its Potency is inconclusive [activator, single point].

For `O=C(COc1ccccc1F)Nc1c2c(nn1-c1ccccc1)CS(=O)(=O)C2`, which Potency is on record?
The Potency was “inactive”.

With `COc1ccc(CN(C(=O)c2ccco2)c2ccc(C)c(C)c2)cc1` as the compound, how does the Potency read?
Its Potency is active: 10.3 µM.

For `COc1ccc(CCNC(=O)Cn2c(-c3nonc3N)nc3ccccc32)cc1OC`, which Potency is on record?
The Potency was inconclusive [activator, partial curve, poor fit].

Which Potency does the source give for `COC(=O)c1ccc(COC(=O)c2ccc(N(C)C)cc2)cc1` here?
The Potency was active: 8.2 µM.

For `Cc1ccccc1N=Nc1ccc(O)c2ncccc12`, which Potency is on record?
Its Potency is inconclusive [activator, partial curve, poor fit].

Which Potency does the source give for `CN(/N=C/c1ccc(O)cc1O)c1ncc(C(F)(F)F)cc1Cl` here?
The Potency was inconclusive [activator, single point].

With `O=C(Nc1ccc(F)cc1)c1ccc(CSc2ccc(Cl)cc2)o1` as the compound, how does the Potency read?
Its Potency is inconclusive [activator, single point].

Which Potency does the source give for `CCc1nc(NC(C)(C)C)c2cnn(-c3ccccc3)c2n1` here?
The Potency was active: 23.1 µM.

Which Potency does the source give for `O=C(CNC(=O)c1ccncc1)N/N=C/c1cc(Br)ccc1OCc1ccccc1` here?
Its Potency is inconclusive [activator, partial curve, poor fit].

Which Potency does the source give for `CCOC(=O)N1CCN(c2ccc(O)cc2)CC1` here?
Its Potency is inconclusive [activator, partial curve, poor fit].

Which Potency does the source give for `COc1ccc(Nc2nc(C)c(-c3ccccc3)s2)cc1` here?
Its Potency is inconclusive [activator, single point].

Which Potency does the source give for `COc1cc(COc2ccc(S(=O)(=O)N3CCOCC3)cc2[N+](=O)[O-])ccc1OC(F)F` here?
Its Potency is inconclusive [activator, single point].

Which Potency does the source give for `Cc1ccc(N=CC=C2OC(C)(C)C(C)(C)O2)c(C)c1` here?
Its Potency is inconclusive [activator, single point].

With `COC(=O)C1=C(C(=O)OC)[C@@H]2N(Cc3ccccc3)c3ccccc3[C@@]23C[C@@H](C(=O)OC)N(C(=O)COCc2ccccc2)C3=N1` as the compound, how does the Potency read?
The Potency was inconclusive [activator, full curve, poor fit].

For `O=[N+]([O-])c1ccc(Cl)cc1C=NNc1ccccn1`, which Potency is on record?
The Potency was “inactive”.

With `CSc1ccc(-c2sc(Nc3ccccc3)n[n+]2-c2ccccc2)cc1` as the compound, how does the Potency read?
Its Potency is inconclusive [activator, full curve].

For `CN(C)S(=O)(=O)c1ccc(NC(=O)/C=C/c2ccccc2Cl)cc1`, which Potency is on record?
The Potency was inconclusive [activator, partial curve, poor fit].

Which Potency does the source give for `COc1cc2c(cc1OC)C(c1ccc(-c3ccccc3Cl)o1)=NCC2` here?
The Potency was inconclusive [activator, single point].

Which Potency does the source give for `Cc1ccccc1-c1cc(C(=O)n2cccn2)c2cc(Cl)ccc2n1` here?
The Potency was “inactive”.

Which Potency does the source give for `OCC1(Cc2ccccc2)CCN(Cc2cnc(-c3cccc4ccccc34)nc2)CC1` here?
Its Potency is inconclusive [activator, partial curve, poor fit].

For `CCC(C(=O)Nc1ccccc1OC)n1c(C(=O)OC)cc2ccsc21` (configuration not stated), which Potency is on record?
Its Potency is inconclusive [activator, single point].

With `COc1cccc(-c2c(-c3cc(OC)cc(OC)c3)n(C)c3ccc(Br)cc23)c1` as the compound, how does the Potency read?
Its Potency is inconclusive [activator, full curve].

For `COc1cc(-c2ccc3c(=O)c4ccccc4sc3c2)cc(OC)c1OC`, which Potency is on record?
The Potency was active: 3.66 µM.

With `CC(=O)c1cccc(OCc2cc(C(=O)N3CCSCC3)no2)c1` as the compound, how does the Potency read?
The Potency was inconclusive [activator, partial curve, poor fit].

Which Potency does the source give for `CCN1CCCC1CN(Cc1cc2ccc(C)cc2[nH]c1=O)C(=S)Nc1ccc(F)cc1` (configuration not stated) here?
Its Potency is active: 6.51 µM.

For `COc1ccc(C2C(C#N)=C(N)Oc3c2c(-c2ccccc2)nn3-c2ccccc2)c(OC)c1OC` (configuration not stated), which Potency is on record?
Its Potency is inconclusive [activator, partial curve, poor fit].

Which Potency does the source give for `O=C(Nc1ccccc1N1CCCCC1)c1ccc([N+](=O)[O-])o1` here?
Its Potency is inconclusive [activator, single point].

For `O=C(Nc1ccccc1)C1CCN(c2nccs2)CC1`, which Potency is on record?
Its Potency is inconclusive [activator, single point].

Which Potency does the source give for `CCOc1ccc2ccccc2c1/C=N/NC(=O)CNC(=O)Cc1ccccc1` here?
Its Potency is inconclusive [activator, full curve, poor fit].

Which Potency does the source give for `CCc1nccn1CCC(=O)N1CCCC(Nc2ccc(F)cc2)C1` (configuration not stated) here?
Its Potency is inconclusive [activator, full curve, poor fit].

Which Potency does the source give for `CCOc1ccc(OCC)c(NC(=O)C2CCCN(c3nc(C)cc(C)n3)C2)c1` (configuration not stated) here?
The Potency was inconclusive [activator, single point].

With `O=C1c2ccccc2NC(c2ccccc2Cl)N1N=C1CCCCCC1` (configuration not stated) as the compound, how does the Potency read?
Its Potency is inconclusive [activator, partial curve, poor fit].

With `CCOC(=O)c1ccc2[nH]c3ccccc3c2c1` as the compound, how does the Potency read?
The Potency was inconclusive [activator, partial curve, poor fit].

With `CCCCSC(=S)NC1CCS(=O)(=O)C1` (configuration not stated) as the compound, how does the Potency read?
The Potency was active: 23.1 µM.

For `CC1CCC(C(C)C)C(OC(=O)COC(=O)c2cc(O)ccc2N)C1` (configuration not stated), which Potency is on record?
Its Potency is active: 23.1 µM.

With `CN(C)/C=C/C(=O)c1ccn(S(=O)(=O)c2ccccc2)c1` as the compound, how does the Potency read?
Its Potency is inconclusive [activator, single point].

With `Cc1onc(-c2c(F)cccc2Cl)c1C(=O)NCCN1CCNC1=O` as the compound, how does the Potency read?
Its Potency is inconclusive [activator, partial curve, poor fit].

For `O=C(Nc1cccc(F)c1)c1ccc(-c2ccccc2Cl)o1`, which Potency is on record?
Its Potency is “inactive”.

Which Potency does the source give for `COc1ccccc1OCCOc1ccc(C(=O)c2ccccc2)cc1` here?
The Potency was inconclusive [activator, single point].

With `CN1CCN(c2ccc(S(=O)(=O)N3CCCCC3)cc2NC(=O)Cc2ccccc2F)CC1` as the compound, how does the Potency read?
The Potency was inconclusive [activator, single point].

Which Potency does the source give for `COC(=O)c1sccc1NC(=O)CN(C)NS(=O)(=O)c1ccc(Cl)cc1` here?
The Potency was inconclusive [activator, partial curve, poor fit].

With `CC1Cc2ccccc2N1Cc1nc2scc(-c3cccs3)c2c(=O)[nH]1` (configuration not stated) as the compound, how does the Potency read?
Its Potency is “inactive”.

With `Cc1ccc2nc(N3CCN(C(=O)CCCC(=O)O)CC3)nc(-c3ccccc3)c2c1` as the compound, how does the Potency read?
Its Potency is inconclusive [activator, single point].

For `CC1CCN(C(=O)c2[nH]cnc2C(=O)N[C@@H](CCCCNC(=O)OC(C)(C)C)C(=O)OC(C)(C)C)CC1`, which Potency is on record?
Its Potency is inconclusive [activator, single point].

Which Potency does the source give for `COc1ccc(N2CCN(Cc3cc(=O)oc4cc(C)c(Cl)c(C)c34)CC2)cc1` here?
The Potency was inconclusive [activator, single point].

For `Nc1ccc(N2CCN(C(=O)c3ccco3)CC2)cc1`, which Potency is on record?
Its Potency is inconclusive [activator, partial curve, poor fit].

Which Potency does the source give for `O=C(/C=C/Nc1ccccc1F)c1cccs1` here?
The Potency was “inactive”.

Which Potency does the source give for `COC(=O)C1C(=O)C2=C(CC1C)Nc1ccccc1NC2c1ccc(C)s1` (configuration not stated) here?
The Potency was inconclusive [activator, single point].

Which Potency does the source give for `CC(=NNc1nc2ccccc2o1)c1ncccn1` here?
Its Potency is inconclusive [activator, full curve, poor fit].

Which Potency does the source give for `O=P(O)(O)C(O)(Cn1ccnc1)P(=O)(O)O` here?
The Potency was “inactive”.

Which Potency does the source give for `CCOc1ccc(NC(=O)Cn2cncc2-c2ccc([N+](=O)[O-])cc2)cc1` here?
Its Potency is inconclusive [activator, full curve, poor fit].

Which Potency does the source give for `Cn1nnnc1SCCNC(=O)C1CCC(=O)N(CCc2cccc(F)c2)C1` (configuration not stated) here?
Its Potency is “inactive”.

Which Potency does the source give for `CC1CCCN(CCCNC(=O)c2nn(C)c3c2CSc2ccccc2-3)C1` (configuration not stated) here?
Its Potency is “inactive”.

With `Cc1cc(C)c2nc(NNC(=O)c3ccc(S(=O)(=O)N4CCCC(C)C4)cc3)sc2c1` (configuration not stated) as the compound, how does the Potency read?
The Potency was active: 14.6 µM.

For `S=C(NCC1CCCO1)Nc1ccc(Cl)c(Cl)c1` (configuration not stated), which Potency is on record?
The Potency was inconclusive [activator, single point].

With `O=C(NCCCN1CCOCC1)c1ccc2c(c1)N(Cc1cccc(Cl)c1)C(=O)CS2` as the compound, how does the Potency read?
The Potency was inconclusive [activator, single point].

For `Cc1ccc(C(=O)NCCSc2ccc(Cl)cc2)cc1S(=O)(=O)Nc1ccccc1`, which Potency is on record?
Its Potency is inconclusive [activator, single point].

With `CCN(CCCCOC(=O)c1ccc(OC)c(OC)c1)C(C)Cc1ccc(OC)cc1` (configuration not stated) as the compound, how does the Potency read?
The Potency was inconclusive [activator, full curve, poor fit].

With `CCCCCCSc1nnc(N)s1` as the compound, how does the Potency read?
The Potency was inconclusive [activator, single point].

For `CCCn1c(C(C)NS(=O)(=O)c2ccccc2)n[nH]c1=S` (configuration not stated), which Potency is on record?
The Potency was “inactive”.

With `COc1ccc(NS(=O)(=O)c2cc3c(cc2C)N(C)CCO3)cc1` as the compound, how does the Potency read?
The Potency was “inactive”.

Which Potency does the source give for `COc1cccc(NC(=O)c2ccccc2N2C(=O)C3C4C=CC(C4)C3C2=O)c1` (configuration not stated) here?
The Potency was “inactive”.

With `CCOC(=O)Cn1nnnc1CN(Cc1cccs1)Cc1cc2cc(C)cc(C)c2[nH]c1=O` as the compound, how does the Potency read?
The Potency was “inactive”.

For `O=C(Nc1ccc(F)cc1)C1C(c2ccccc2)C1(Cl)Cl` (configuration not stated), which Potency is on record?
The Potency was inconclusive [activator, single point].

For `Cc1noc(C)c1NC(=O)Nc1cccc2c1O[C@@H](CN(C)C(=O)Nc1ccc3c(c1)OCO3)[C@@H](C)CN([C@H](C)CO)C2=O`, which Potency is on record?
Its Potency is “inactive”.

From PubChem BioAssay AID624296 (National Center for Advancing Translational Sciences (NCATS), 2012)
